# Experimental data: PubChem BioAssay (NCATS)
# Values joined by “and” are separate entries in the source; they are usually repeats but may differ in a detail not shown here. Identical values can stand only once. The inconclusive results got no clear call from the source; some entries with a clear call stand among them for comparison. For some of these results: Where the call is inconclusive, the potency comes from a doubtful curve fit. Where a structure was tested more than once in an assay, its records may differ in their call. Active and inactive are the calls of the source. The call rests on the fitted dose curve; in most records, active means well fitted curve in the direction sought with a large enough effect; inconclusive means small, poorly fitted or top-dose-only effect, or another doubt; inactive means no such curve, though single readings can be large; an effect the other way counts as inactive or inconclusive.
# What was measured:
# [1] = tested on: Zika virus NS2B-NS3 protease (unlinked); assay: Optimization of GU AMC qHTS for Zika virus inhibitors: Unlinked NS2B-NS3 protease assay (AID 1347151); details: recombinant ZIKV NS2B-NS3 protease, fluorogenic AMC substrate; series mostly up to 52.5 µM; further: nearly all actives have a fitted effect of over 80% in size; further: potency means the concentration at half of the fitted maximal effect
# How it was run: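 Unlinked protease (25 nM final); buffer 10 mM Tris-HCl pH 8.0 + 0.01% Tween 20; AMC substrate; 15 min RT, dark; Δfluorescence normalized to no-inhibitor/no-enzyme controls; 4-parameter Hill fit.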
# Furin (Homo sapiens) = Furin (Homo sapiens) (UniProt P09958); assay: Furin counterscreen qHTS for Zika virus inhibitors (AID 1347149); details: furin enzymatic counterscreen, fluorogenic substrate; series mostly up to 57.5 µM; further: nearly all actives have a fitted effect of over 70% in size; further: potency means the concentration at half of the fitted maximal effect
# How it was run: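 Fluorogenic cleavage of BOC-RVRR-AMC (2 microM final, Km ~15 µM) was monitored (ex 340, em 450 nm) at 37C after 15 min RT preincubation of 5 nM furin with compounds in HEPES pH 7.0 buffer with CaCl2 and Triton X-100. Percent inhibition was fitted to a 4-parameter Hill curve.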
# [2] = tested on: Zika virus NS2B-NS3 protease (linked construct); assay: Confirmatory screen NINDS AMC qHTS for Zika virus inhibitors (AID 1347152); details: Purified linked NS2B-NS3, AMC substrate fluorescence; series mostly up to 56.6 µM; further: nearly all actives have a fitted effect of over 70% in size; further: potency means the concentration at half of the fitted maximal effect
# How it was run: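 Enzyme (1 nM, linked construct) was preincubated with compound for 15 minutes at room temperature in 10 mM Tris-HCl pH 8.0 with 0.01% Tween 20. Bz-Nle-Lys-Arg-Arg-AMC was then added to 10 microM, and AMC fluorescence was recorded immediately and after 15 minutes.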
# [3] = ZIKV-mCherry secondary qHTS for Zika virus inhibitors (AID 1347158); details: Vero cells, ZIKV-mCherry infection imaging, 48-72 h; series mostly up to 49.2 µM; further: potency means the concentration at half of the fitted maximal effect
# How it was run: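 Vero cells, 5,000/well, plated overnight at 37 °C, then compound added and infected with recombinant ZIKV-mCherry at MOI 1 for 48-72 h. PFA-fixed, Hoechst nuclear stain, high-content imaging; cells with mCherry intensity above 450 RFU scored infected, reported as percent infection.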
# [4] = tested on: Zika virus NS2B-NS3 protease; assay: Primary screen GU AMC qHTS for Zika virus inhibitors (AID 1347154); details: Zika NS2B-NS3 unlinked protease, AMC fluorogenic substrate; series mostly up to 54.1 µM; further: potency means the concentration at half of the fitted maximal effect; nearly all actives have a fitted effect of over 70% in size
# How it was run: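 Fluorogenic AMC-substrate cleavage by noncovalent NS2B-NS3 protease complex (25 nM, pH 8.0 Tris buffer with Tween 20) followed for 15 minutes at room temperature (~20% conversion). Percent inhibition from ex340/em450 signal change, fitted by 4-parameter Hill equation.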
# [5] = tested on: Zika virus NS2B-NS3 protease (linked); assay: 384 well plate NINDS AMC confirmatory qHTS for Zika virus inhibitors (AID 1347163); details: Recombinant NS2B-NS3 protease, Ac-VKTGKR-AMC fluorescence; further: potency means the concentration at half of the fitted maximal effect; nearly all actives have a fitted effect of over 50% in size
# How it was run: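 Linked protease 5/30/60 nM final; cpds up to 1 mM final, ~15 min preinc. Substrate Ac-VKTGKR-AMC 30 microM final. RT, dark, 25 min; FI ex 355/em 460; normalized to no-enzyme/no-inhibitor ctrls.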
# [6] = HepG2 cells viability qHTS for Zika virus inhibitors (AID 1347168); details: Zika counter-screen; series mostly up to 45.9 µM; further: potency means the concentration at half of the fitted maximal effect
# How it was run: (§1)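 Compounds were tested in concentration series on cells grown in DMEM containing 4% FBS. After 24 to 48 hours, cellular ATP was measured by luminescence with CellTiter Glo.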
# [7] = tested on: Zika virus NS2B-NS3 protease (unlinked complex); assay: Confirmatory screen GU AMC qHTS for Zika virus inhibitors (AID 1347153); details: Recombinant NS2B-NS3 protease, AMC substrate fluorescence; series mostly up to 57.1 µM; further: nearly all actives have a fitted effect of over 70% in size
# How it was run: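 Fluorescence change (ex 340/em 450 nm) over 15 min, ~20% substrate conversion, normalized to no-inhibitor and no-enzyme controls, then Hill-fitted. Unlinked protease at 25 nM; AMC peptide 10 µM.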
# [8] = Confirmatory screen NINDS Rhodamine qHTS for Zika virus inhibitors (AID 1347161); details: purified enzyme assay, Rhodamine110 substrate fluorescence, 15 min; series mostly up to 114 µM; further: nearly all actives have a fitted effect of over 60% in size; further: potency means the concentration at half of the fitted maximal effect
# How it was run: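 Kinetic fluorescence (Ex 480 nm, Em 540 nm) over 15 min with 1.5 microM Rhodamine110 peptide and 25 nM linked protease.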
# [9] = Vero cells viability qHTS for Zika virus inhibitors (AID 1347167); details: cytotoxicity counter-screen (Zika); further: potency means the concentration at half of the fitted maximal effect
# How it was run: as §1
# [10] = tested on: Zika virus NS2B-NS3 protease (unlinked complex); assay: Primary screen GU Rhodamine qHTS for Zika virus inhibitors: Unlinked NS2B-NS3 protease assay (AID 1347159); details: Recombinant ZIKV NS2B-NS3 protease, Rhodamine110 substrate fluorescence; series mostly up to 107 µM; further: potency means the concentration at half of the fitted maximal effect; nearly all actives have a fitted effect of over 60% in size
# How it was run: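 A qHTS format was used, with compound concentrations ranging up to 114 microM. Each compound was preincubated with 25 nM NS2B-NS3 protease, and the substrate was then added at 1.5 microM. Curves were fitted with a 4-parameter Hill model.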
# [11] = target: Lysine-specific demethylase 5B (Homo sapiens) (UniProt Q9UGL1); assay: Optimization screen for KDM5B Histone Demethylases FDH coupled qHTS against the LOPAC library (AID 1347166); details: KDM5B demethylation, FDH-coupled NADH fluorescence (FDH is formaldehyde dehydrogenase); series mostly up to 57.5 µM
# How it was run: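 KDM5BDeltaAP (200nM final) preincubated 10 min with compound, then 12.5uM H3K4Me3, 25uM a-ketoglutarate, ascorbate, Fe(II), NAD+ and FDH added; 50mM HEPES pH 7.5, 0.01% Tween-20. NADH fluorescence (340/450 nm) change over 30 min, room temperature.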
# [12] = tested on: Zika virus NS2B-NS3 protease (linked construct); assay: 384 well plate NINDS Rhodamine confirmatory qHTS for Zika virus inhibitors (AID 1347164); details: rhodamine-110 peptide substrate fluorescence; series mostly up to 2 mM;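 further: fluorescence from protease cleavage of Ac-LKRR-rhodamine 110 substrate; top concentration of the series differs between compounds; nearly all actives have a fitted effect of over 65% in size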
# How it was run: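 Enzyme (final 5/30/60 nM) + cpd (DMSO), ~15 min; add Ac-LKRR-Rd 10 microM final; 25 min RT, dark; FI ex 485/em 538; normalized to no-enzyme, no-inhibitor ctrls; aprotinin intraplate ctrl.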
# Tags describe the fitted curve by direction and shape.
# Sequence of UniProt P09958 (P09958 whole entry, looked up): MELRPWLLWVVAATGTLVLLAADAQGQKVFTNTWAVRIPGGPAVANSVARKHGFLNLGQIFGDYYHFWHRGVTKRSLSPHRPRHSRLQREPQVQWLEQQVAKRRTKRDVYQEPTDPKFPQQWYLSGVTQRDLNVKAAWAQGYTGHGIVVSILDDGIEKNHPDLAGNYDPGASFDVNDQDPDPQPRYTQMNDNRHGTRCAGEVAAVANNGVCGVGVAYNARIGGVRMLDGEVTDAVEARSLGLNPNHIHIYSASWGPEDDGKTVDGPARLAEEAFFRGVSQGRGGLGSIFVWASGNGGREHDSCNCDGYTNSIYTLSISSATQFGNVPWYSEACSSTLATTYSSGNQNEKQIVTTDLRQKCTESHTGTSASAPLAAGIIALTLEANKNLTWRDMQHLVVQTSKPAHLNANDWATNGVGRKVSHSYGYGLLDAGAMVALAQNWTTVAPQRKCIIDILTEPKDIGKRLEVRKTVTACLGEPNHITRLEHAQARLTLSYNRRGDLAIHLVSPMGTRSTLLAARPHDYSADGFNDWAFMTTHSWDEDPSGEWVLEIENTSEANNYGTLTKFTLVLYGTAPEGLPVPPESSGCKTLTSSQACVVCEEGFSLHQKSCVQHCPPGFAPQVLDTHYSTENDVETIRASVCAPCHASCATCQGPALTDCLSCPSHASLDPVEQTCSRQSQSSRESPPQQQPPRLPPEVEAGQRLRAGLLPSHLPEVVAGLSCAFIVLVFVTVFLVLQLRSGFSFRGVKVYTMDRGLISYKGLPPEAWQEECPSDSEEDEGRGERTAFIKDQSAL
# Sequence of UniProt Q9UGL1 (Q9UGL1 whole entry, looked up): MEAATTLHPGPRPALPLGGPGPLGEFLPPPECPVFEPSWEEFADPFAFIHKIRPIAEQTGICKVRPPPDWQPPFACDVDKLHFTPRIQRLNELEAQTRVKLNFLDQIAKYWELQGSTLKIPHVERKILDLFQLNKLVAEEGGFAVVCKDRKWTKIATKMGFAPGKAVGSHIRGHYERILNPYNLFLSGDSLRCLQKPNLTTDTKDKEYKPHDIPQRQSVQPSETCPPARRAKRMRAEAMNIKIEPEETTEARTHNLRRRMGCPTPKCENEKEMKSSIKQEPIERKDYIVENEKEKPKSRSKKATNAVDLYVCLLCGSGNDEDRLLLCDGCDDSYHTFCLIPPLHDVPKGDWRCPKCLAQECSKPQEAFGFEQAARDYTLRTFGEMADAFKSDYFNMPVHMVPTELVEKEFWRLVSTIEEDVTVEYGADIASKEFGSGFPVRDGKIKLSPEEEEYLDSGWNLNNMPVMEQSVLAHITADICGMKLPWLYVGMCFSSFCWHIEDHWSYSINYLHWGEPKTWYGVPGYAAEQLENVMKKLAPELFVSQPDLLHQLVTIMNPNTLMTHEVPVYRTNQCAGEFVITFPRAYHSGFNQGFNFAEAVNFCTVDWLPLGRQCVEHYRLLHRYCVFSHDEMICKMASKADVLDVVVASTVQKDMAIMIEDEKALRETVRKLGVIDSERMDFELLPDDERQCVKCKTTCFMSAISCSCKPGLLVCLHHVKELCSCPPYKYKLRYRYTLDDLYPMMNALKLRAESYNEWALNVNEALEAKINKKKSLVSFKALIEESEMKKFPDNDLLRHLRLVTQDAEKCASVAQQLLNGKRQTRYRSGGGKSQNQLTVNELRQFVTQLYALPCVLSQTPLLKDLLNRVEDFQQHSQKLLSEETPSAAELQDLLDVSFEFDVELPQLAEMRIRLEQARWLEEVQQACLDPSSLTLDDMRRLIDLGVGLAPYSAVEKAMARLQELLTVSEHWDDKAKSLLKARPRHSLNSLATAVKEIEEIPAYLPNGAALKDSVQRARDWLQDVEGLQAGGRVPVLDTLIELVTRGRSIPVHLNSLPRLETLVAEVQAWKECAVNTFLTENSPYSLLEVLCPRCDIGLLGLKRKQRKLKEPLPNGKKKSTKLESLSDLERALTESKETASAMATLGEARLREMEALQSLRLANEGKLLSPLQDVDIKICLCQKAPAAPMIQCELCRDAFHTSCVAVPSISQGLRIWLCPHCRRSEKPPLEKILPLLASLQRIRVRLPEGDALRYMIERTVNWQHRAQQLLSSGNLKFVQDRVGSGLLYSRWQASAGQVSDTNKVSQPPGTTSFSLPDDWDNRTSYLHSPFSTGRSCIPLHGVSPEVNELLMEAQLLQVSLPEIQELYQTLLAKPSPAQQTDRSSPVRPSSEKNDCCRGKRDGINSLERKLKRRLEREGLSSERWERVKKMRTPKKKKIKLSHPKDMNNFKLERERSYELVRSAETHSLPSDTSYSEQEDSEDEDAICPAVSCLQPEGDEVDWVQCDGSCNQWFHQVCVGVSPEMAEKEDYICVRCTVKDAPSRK
smiles,measurement,setting,value
Fc1ccc([C@@H]2CCNC[C@H]2COc2ccc3c(c2)OCO3)cc1,Potency,[1],inactive
O=C(O)c1ccc(-n2nc(-c3ccccc3O)nc2-c2ccccc2O)cc1,Potency,Furin (Homo sapiens),inactive
same,Potency,[1],"inconclusive: 30.4 µM [inhibitor, single point]"
same,Potency,[2],inactive
same,Potency,[3],"inconclusive: 6.31 µM [inhibitor, full curve, poor fit]"
N#CC(c1ccc(Cl)cc1)c1c(Cl)cc(-n2ncc(=O)[nH]c2=O)cc1Cl (stereo not given),Potency,Furin (Homo sapiens),"inconclusive: 27 µM [inhibitor, partial curve, poor fit]"
same,Potency,[2],active: 21.5 µM
same,Potency,[4],"inconclusive: 21.5 µM [inhibitor, partial curve]"
same,Potency,[3],"inconclusive: 25.1 µM [inhibitor, partial curve, poor fit]"
same,Potency,[5],"inconclusive: 63.1 µM [inhibitor, full curve]"
same,Potency,[6],inactive
COc1cc(NCc2ccc3nc(N)nc(N)c3c2C)cc(OC)c1OC,Potency,[7],"inconclusive: 24.1 µM [inhibitor, partial curve]"
same,Potency,[4],"inconclusive: 13.4 µM [inhibitor, partial curve]"
same,Potency,[6],"inconclusive: 10.4 µM [cytotoxic, full curve]"
N[C@@H](Cc1ccc(O)c(O)c1)C(=O)O,Potency,[1],"inconclusive: 33.6 µM [inhibitor, single point]"
same,Potency,[4],active: 27.1 µM
C[C@@H](NCc1cc2ccccc2[nH]1)c1cccc2ccccc12,Potency,Furin (Homo sapiens),"inconclusive: 38.2 µM [inhibitor, partial curve, poor fit]"
same,Potency,[2],inactive
same,Potency,[7],inactive
same,Potency,[4],"inconclusive: 17.1 µM [inhibitor, partial curve]"
same,Potency,[8],inactive
same,Potency,[9],"inconclusive: 36.9 µM [cytotoxic, single point]"
same,Potency,[6],"inconclusive: 32.9 µM [cytotoxic, single point]"
N#CC1(c2cccc(C(=O)Nc3cc(Oc4ccc5nc(NC(=O)C6CC6)sc5n4)ccc3F)c2Cl)CC1,Potency,[2],inactive
same,Potency,[7],inactive
same,Potency,[4],active: 21.5 µM
same,Potency,[10],active: 22.4 µM
same,Potency,[5],"inconclusive: 11.2 µM [inhibitor, full curve, poor fit]"
CC(C)(C)C(=O)Oc1ccc(S(=O)(=O)Nc2ccccc2C(=O)NCC(=O)O)cc1,Potency,[1],"inconclusive: 26.7 µM [inhibitor, single point]"
COc1ccc(-c2ccc3cc(C(=O)O)ccc3c2)cc1C12CC3CC(CC(C3)C1)C2,Potency,Furin (Homo sapiens),inactive
CS(=O)(=O)Nc1ccc([N+](=O)[O-])cc1Oc1ccccc1,Potency,[1],inactive
same,Potency,[11],inactive
CC(C)c1ccccc1Cc1cc(C(=O)Nc2ccc(S(=O)(=O)c3ccccc3C(C)(C)C)cc2)c(O)c(O)c1O,Potency,[2],inactive
same,Potency,[7],inactive
same,Potency,[4],active: 17.1 µM
CC1=C(C(=O)O)N2C(=O)[C@@H](NC(=O)C(N)c3ccccc3)[C@H]2SC1 (stereo not given in full),Potency,[1],inactive
CC(=O)NC[C@H]1CN(c2ccc(N3CCOCC3)c(F)c2)C(=O)O1,Potency,[1],inactive
COc1ccccc1-c1cccc(-c2c(O)c3cc(C#N)c(Cl)cc3[nH]c2=O)c1,Potency,Furin (Homo sapiens),inactive
same,Potency,[2],"inconclusive: 24.1 µM [inhibitor, partial curve]"
same,Potency,[7],inactive
same,Potency,[4],active: 49.4 µM
same,Potency,[8],active: 27.8 µM
CCN(CC)CCOc1ccc(Nc2ncc3cc(-c4c(Cl)cccc4Cl)c(=O)n(C)c3n2)cc1,Potency,[1],inactive
COc1c2occc2cc2ccc(=O)oc12,Potency,[1],"inconclusive: 98.7 µM [inhibitor, partial curve, poor fit] and inconclusive: 19.2 µM [inhibitor, partial curve]"
same,Potency,[3],"inconclusive: 50.1 µM [inhibitor, partial curve, poor fit]"
same,Potency,[5],"inconclusive: 355 µM [inhibitor, partial curve, poor fit]"
same,Potency,[12],inactive
same,Potency,[6],inactive
COCC(=O)NCC=Cc1ccc2ncnc(Nc3ccc(Oc4ccc(C)nc4)c(C)c3)c2c1,Potency,[2],"inconclusive: 34.1 µM [inhibitor, single point]"
same,Potency,[7],"inconclusive: 30.4 µM [inhibitor, partial curve, poor fit]"
same,Potency,[4],"inconclusive: 42.9 µM [inhibitor, single point]"
Fc1ccc(C(c2ccc(F)cc2)N2CCN(CC=Cc3ccccc3)CC2)cc1,Potency,[2],inactive
same,Potency,[7],inactive
same,Potency,[4],"inconclusive: 24.1 µM [inhibitor, partial curve]"
same,Potency,[6],"inconclusive: 20.8 µM [cytotoxic, partial curve, poor fit]"
